{"source": "the supplement of paper PMC3334620", "note": "The full ranking holds about 33,000 sequences; the median of “E-score (-0.5 to 0.5)” is about -0.056, and the highest 2% start at about 0.38. The list shows a part of the results.", "data": [{"target": "Stb4 (UniProt P50104)", "test": "PBM E-score (8-mer binding enrichment) (E-score (-0.5 to 0.5)); higher = stronger / more preferred TF binding; most listed sequences are background and not binding sites", "details": "protein concentration: 200 nM; construct: GST-DNA-binding domain", "outline": "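Masliner-normalised scans of fluorescent anti-GST signal were the basis for scoring. That signal came from GST-tagged yeast transcription factors applied at about 100-200 nM to double-stranded universal all-10-mer Agilent arrays on fresh or once-stripped slides. Each ungapped eight-base word, pooled with its reverse complement, received an E-score from the Universal PBM Analysis Suite.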", "values": [{"sequence": "CGGCTCGA", "PBM E-score": 0.307}, {"sequence": "ATTACCGG", "PBM E-score": 0.315}, {"sequence": "CATCCTGG", "PBM E-score": -0.211}, {"sequence": "TCTAGTAA", "PBM E-score": -0.126}, {"sequence": "ACAGCCGT", "PBM E-score": 0.183}, {"sequence": "CGTAGGAA", "PBM E-score": -0.117}, {"sequence": "AGTTTCGA", "PBM E-score": -0.131}, {"sequence": "CCATTGGC", "PBM E-score": -0.0415}, {"sequence": "ATTAGCAG", "PBM E-score": -0.0138}, {"sequence": "TCGCGCCA", "PBM E-score": 0.0181}, {"sequence": "ATTACTAC", "PBM E-score": -0.142}, {"sequence": "AGACCTGG", "PBM E-score": -0.104}, {"sequence": "TCATTAGA", "PBM E-score": -0.0953}, {"sequence": "ATGCTTTC", "PBM E-score": 0.0626}, {"sequence": "ACGGACCG", "PBM E-score": 0.215}, {"sequence": "GAACTTGA", "PBM E-score": 0.0679}, {"sequence": "AAAAGAAG", "PBM E-score": -0.135}, {"sequence": "GGTATTTA", "PBM E-score": 0.17}, {"sequence": "CTATAGAA", "PBM E-score": -0.123}, {"sequence": "GATGATCC", "PBM E-score": 0.206}, {"sequence": "AGGTGGTG", "PBM E-score": -0.0694}, {"sequence": "CTAACCGC", "PBM E-score": 0.0169}, {"sequence": "CCGGAGAG", "PBM E-score": 0.253}, {"sequence": "ACTCGGGC", "PBM E-score": 0.263}, {"sequence": "GTTGTCGA", "PBM E-score": -0.105}, {"sequence": "GATGCACA", "PBM E-score": -0.116}, {"sequence": "ATTTCCCC", "PBM E-score": 0.07}, {"sequence": "AGCACATA", "PBM E-score": -0.0945}, {"sequence": "ATGATGTA", "PBM E-score": -0.135}, {"sequence": "ACCCGAGT", "PBM E-score": 0.423}, {"sequence": "ATAAGAAA", "PBM E-score": -0.0559}, {"sequence": "ACTAACCG", "PBM E-score": 0.291}, {"sequence": "TACCTACA", "PBM E-score": -0.101}, {"sequence": "AACTTTCC", "PBM E-score": 0.236}, {"sequence": "ATCGTAGA", "PBM E-score": -0.167}, {"sequence": "TTATCGAA", "PBM E-score": -0.031}, {"sequence": "CTAACTCC", "PBM E-score": 0.0117}, {"sequence": "CTTACGTA", "PBM E-score": -0.224}, {"sequence": "AACGAAAA", "PBM E-score": -0.251}, {"sequence": "AACGAGAA", "PBM E-score": -0.126}, {"sequence": "TAGTCGGA", "PBM E-score": 0.405}, {"sequence": "CCCTTAAA", "PBM E-score": -0.219}, {"sequence": "CCCATATC", "PBM E-score": -0.035}, {"sequence": "ATTTCCAG", "PBM E-score": -0.129}, {"sequence": "GCTTCTAA", "PBM E-score": -0.186}, {"sequence": "CGCAACAA", "PBM E-score": -0.157}, {"sequence": "AAAACAAC", "PBM E-score": -0.191}, {"sequence": "ATTGCTTC", "PBM E-score": 0.103}, {"sequence": "AAAATAAG", "PBM E-score": -0.152}, {"sequence": "CCTCCATC", "PBM E-score": -0.155}, {"sequence": "CAGGTTGA", "PBM E-score": -0.224}, {"sequence": "CACATAGG", "PBM E-score": -0.208}, {"sequence": "GCGCCTCA", "PBM E-score": 0.0897}, {"sequence": "CGAACGCA", "PBM E-score": 0.113}, {"sequence": "AACCGGCA", "PBM E-score": 0.23}, {"sequence": "CCATGCAG", "PBM E-score": -0.267}, {"sequence": "ATCGCGGC", "PBM E-score": 0.128}, {"sequence": "CACTCAAG", "PBM E-score": -0.372}, {"sequence": "ACATTTCT", "PBM E-score": 0.061}, {"sequence": "AGGGCAAC", "PBM E-score": -0.0754}, {"sequence": "GCTTAGAA", "PBM E-score": -0.15}, {"sequence": "AATCCATC", "PBM E-score": -0.12}, {"sequence": "CTGTAGCA", "PBM E-score": -0.267}, {"sequence": "CTGGTTAC", "PBM E-score": -0.21}, {"sequence": "ATCTTAAT", "PBM E-score": -0.132}, {"sequence": "GGCTCGGA", "PBM E-score": 0.466}, {"sequence": "CAAGCGAA", "PBM E-score": -0.201}, {"sequence": "TCGGCCCA", "PBM E-score": 0.281}, {"sequence": "ATTTGGGG", "PBM E-score": -0.0633}, {"sequence": "CAAAGTTA", "PBM E-score": -0.0966}, {"sequence": "CCTTAGTC", "PBM E-score": -0.155}, {"sequence": "AGCAACTA", "PBM E-score": -0.0935}, {"sequence": "GAGGCGAC", "PBM E-score": -0.175}, {"sequence": "GGTAGGGA", "PBM E-score": -0.0824}, {"sequence": "AAGGCCGG", "PBM E-score": 0.19}, {"sequence": "TCGTTACA", "PBM E-score": -0.149}, {"sequence": "AGAAACAC", "PBM E-score": -0.156}, {"sequence": "CCCGCTAC", "PBM E-score": 0.0681}, {"sequence": "ACTTACAT", "PBM E-score": -0.117}, {"sequence": "GACGTCAC", "PBM E-score": -0.142}, {"sequence": "AAAAGGAT", "PBM E-score": -0.125}, {"sequence": "ACCATAAC", "PBM E-score": -0.0691}, {"sequence": "CCTCTGTC", "PBM E-score": -0.201}, {"sequence": "CACGTAAA", "PBM E-score": -0.213}, {"sequence": "GAGTTCCA", "PBM E-score": -0.0286}, {"sequence": "AGCGTGCC", "PBM E-score": 0.107}, {"sequence": "CTCAGTAC", "PBM E-score": -0.0466}, {"sequence": "ACTGGCTA", "PBM E-score": -0.0919}, {"sequence": "CGTTTCTC", "PBM E-score": 0.0825}, {"sequence": "CGCCCCAA", "PBM E-score": 0.0104}, {"sequence": "GCTGTCCC", "PBM E-score": -0.0389}, {"sequence": "AGGAGTAG", "PBM E-score": -0.0742}, {"sequence": "AGATAGGA", "PBM E-score": -0.158}, {"sequence": "ACATCGAA", "PBM E-score": -0.132}]}]}
